Test results taken from PubChem BioAssay AID686979 (National Center for Advancing Translational Sciences (NCATS), 2013).
About 50,000 (12%) of roughly 420,000 compounds were called active. This list was built around the results that the source calls inconclusive (neither active nor inactive); the mix of calls is not that of the screen. The call rests on the fitted dose curve; in most records, active means well fitted inhibition curve with a large enough effect; inconclusive means small, poorly fitted or top-dose-only effect; inactive means flat fitted curve, though single readings scatter. Potencies of inconclusive entries are left out as doubtful fits.
On the % scale 0 is the no-effect control and ±100 the full control effect; potency means the concentration at half of the fitted maximal effect; tags describe the fitted curve by direction and shape.

Test: qHTS for Inhibitors of human tyrosyl-DNA phosphodiesterase 1 (TDP1): qHTS in cells in presence of CPT; further: nearly all actives have a fitted effect of over 55% in size
Settings: chicken DT40 Tdp1-/-;hTDP1 cells + 20 nM CPT, ATP luminescence, 48 h; activity change, negative = growth inhibition: at 46.2 µM (top of the series)
Summary of the method: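 Cell growth measured by CellTiter-Glo luminescence after a minimum 48 h, 37 C compound exposure with 20 nM CPT in Tdp1-knockout DT40 cells stably expressing hTDP1, seeded 400/well; qHTS titration format.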
With `COc1ccc(NC(=O)C2CCCN2S(=O)(=O)c2ccc(F)cc2)cc1` (stereo unspecified) the Potency was inconclusive [inhibitor, partial curve]. For `COc1cc2c3nnc(-c4ccccc4)c-3cn(Cc3ccc(F)cc3)c2cc1OC`, the Potency was active: 8.2 µM. For `O=C(O)c1ccccc1-c1ccccc1C(=O)Nc1ccc2c(c1)C(=O)c1ccccc1-2`, the Potency was inconclusive [inhibitor, partial curve, poor fit]. With `C[C@@H](NC(=O)c1ncn2c1c(=O)[nH]c1ccc(Br)cc12)c1ccccc1` the Potency was inconclusive [inhibitor, single point]. With `COc1ccc(N2CCN(S(=O)(=O)c3ccc(OC)c(C(=O)N4CCCCC4)c3)CC2)cc1` the Potency was inconclusive [inhibitor, single point]. For `CCSC1(SCC)N=C(N)C2(C#N)C(c3ccc(F)cc3)C12C#N` (stereo unspecified), the Potency was inconclusive [inhibitor, single point]. With `CCOC(=O)Cn1nc(-c2ccccc2)c2cnc3ccc(CC)cc3c21` the Potency was inconclusive [inhibitor, partial curve]. In the case of `Cc1ccc(Cc2c(-c3ccc(C)cc3)nc3ccc(Cl)cn23)cc1`, the Potency is reported as inconclusive [inhibitor, single point]. For `COC(=O)c1c(NC(=O)c2ccco2)sc2c1CCN(C(C)C)C2`, the Potency was inconclusive [inhibitor, single point]. With `COc1ccc(C(=O)OCc2cc(=O)n3nc(C4CC4)sc3n2)cc1OC` the “activity change, negative = growth inhibition” value was inactive: -18.5%. For `O=C(Oc1ccc(/C=N/NC(=O)c2ccccn2)cc1)c1cccc(Br)c1`, the Potency was inconclusive [inhibitor, single point]. In the case of `COC(=O)c1ccc(COc2cc([N+](=O)[O-])cc3cccnc23)cc1`, the activity change, negative = growth inhibition is reported as inconclusive: 6.51% [inhibitor]. For `Cc1onc(-c2ccc(Cl)cc2Cl)c1-c1csc(N/N=C/c2ccccc2Cl)n1`, the Potency was inconclusive [inhibitor, single point]. For `Cc1c(CC(=O)NCc2ccccc2Cl)c(=O)oc2cc(O)ccc12`, the Potency was inconclusive [inhibitor, partial curve, poor fit]. In the case of `CC(Sc1nc(N)cc(=O)[nH]1)C(=O)Nc1cccc(Cl)c1` (stereo unspecified), the “activity change, negative = growth inhibition” value is reported as inactive: 7.77%. With `CCOc1ccc(-c2nnc(SCC(=O)Nc3cccc(Cl)c3C)o2)cc1` the Potency was inconclusive [inhibitor, single point]. In the case of `COc1cccc(-c2csc(N3CCN(C(=O)Nc4ccccc4Cl)CC3)n2)c1`, the Potency is reported as inconclusive [inhibitor, partial curve]. With `COc1ccc(C(C)(NC(C)=O)c2nc(-c3ccncc3)cs2)cc1` (stereo unspecified) the “activity change, negative = growth inhibition” value was inactive: -8.33%. With `c1cc2nc(C34CC5CC(CC(C5)C3)C4)[nH]c2cn1` the Potency was inconclusive [inhibitor, single point]. For `O=C(CSc1nc2sc3c(c2c(=O)[nH]1)CCCC3)Nc1ccccc1F`, the Potency was inconclusive [inhibitor, full curve]. With `CCCCCN(C(=O)CCC(=O)OCCOc1cccc(C)c1)c1c(N)n(CCCC)c(=O)[nH]c1=O` the Potency was inconclusive [inhibitor, partial curve]. In the case of `CC(=O)N1C=CN(C(C)=O)C(c2cn(C)c3ccccc23)C1c1cn(C)c2ccccc12` (stereo unspecified), the Potency is reported as inconclusive [inhibitor, single point]. In the case of `CC(OC(=O)C1CCCCC1)C(=O)Nc1cccc([N+](=O)[O-])c1` (stereo unspecified), the Potency is reported as inconclusive [inhibitor, partial curve, poor fit]. For `CCc1ccc(NC(=O)C2CC(=O)Nc3ncnn32)cc1` (stereo unspecified), the “activity change, negative = growth inhibition” value was inactive: -18.9%. For `CCN(CC)S(=O)(=O)c1cccc(NC(=O)CN(C)C2CCCCC2)c1`, the Potency was inconclusive [inhibitor, single point]. For `O=C(Nc1ccccc1)c1cccnc1NCCc1ccccc1`, the Potency was inconclusive [inhibitor, single point]. With `CCCCCNc1nc(-c2ccccc2)nc(-n2ccnc2)n1` the Potency was inconclusive [inhibitor, single point]. For `O=[N+]([O-])c1ccc(C[n+]2cccc(O)c2)cc1`, the “activity change, negative = growth inhibition” value was inactive: 4.55%. With `Cc1cccc(NC(=O)CN2CCN(C(=O)c3oc4c(Cl)cccc4c3C)CC2)c1C` the Potency was inconclusive [inhibitor, partial curve]. For `Cc1occc1C(=O)N1N=C(C2CC2)CC1(O)C(F)(F)F` (stereo unspecified), the “activity change, negative = growth inhibition” value was inactive: -2.34%. In the case of `Oc1cccc(Nc2nc(-c3ccccc3Cl)nc3ccccc23)c1`, the Potency is reported as active: 16.4 µM. In the case of `COc1ccccc1C(=O)NNC(=O)c1ccc2ccccc2c1O`, the Potency is reported as inconclusive [inhibitor, single point]. In the case of `CC1(C)OC(=O)C2(Cc3ccccc3N3CCCCC32)C(=O)O1` (stereo unspecified), the Potency is reported as inconclusive [inhibitor, single point]. For `CCOC(=O)N1CCN(C(=O)c2sc3nc(-c4ccc(F)cc4)cn3c2C)CC1`, the Potency was inconclusive [inhibitor, single point]. In the case of `COc1ccc(CN2CCOC2=O)cc1OC`, the Potency is reported as inconclusive [inhibitor, single point]. In the case of `CC(C)(C)OC(=O)CC(S(=O)(=O)c1ccccc1)S(=O)(=O)c1ccccc1`, the Potency is reported as active: 1.3 µM. With `C[C@@H]1CN([C@@H](C)CO)C(=O)CCCn2nncc2CO[C@@H]1CN(C)S(=O)(=O)c1ccc(F)cc1` the “activity change, negative = growth inhibition” value was inactive: 0.521%. For `CC1CCCN(C(=O)c2ccc(Br)c(S(=O)(=O)N3CCOCC3)c2)C1` (stereo unspecified), the “activity change, negative = growth inhibition” value was inactive: -15.9%. For `COc1cccc(NCc2cc(=O)oc3cc(-c4ccccc4)c(O)cc23)c1`, the Potency was inconclusive [inhibitor, single point]. For `O=C(Nc1cccc(S(=O)(=O)NC2=NCCC2)c1)c1ccccc1OC(F)F`, the “activity change, negative = growth inhibition” value was inactive: -12.8%. With `O=C(NC(=O)c1cccc(OC(F)(F)C(F)F)c1)OC1CCS(=O)(=O)C1` (stereo unspecified) the “activity change, negative = growth inhibition” value was inactive: 4.88%. For `COc1ccc(NC(=O)c2ccc(NC(=O)COC(=O)CC(NC(=O)c3ccccc3Cl)c3ccccc3)cc2)cc1` (stereo unspecified), the Potency was inconclusive [inhibitor, single point]. With `Nc1nc(=O)n(C2CC(O)C(CO)O2)cc1F` (stereo unspecified) the Potency was inconclusive [inhibitor, full curve]. In the case of `O=[N+]([O-])c1nccn1CCCCCCCCCCCN1CCOCC1`, the Potency is reported as inconclusive [inhibitor, single point]. For `Cc1ccc(C(O)c2ncc(-c3ccccc3Cl)[nH]2)cc1F` (stereo unspecified), the Potency was inconclusive [inhibitor, partial curve]. With `CCOc1ccccc1/C=C/C(=O)c1ccc(Cl)cc1` the Potency was inconclusive [inhibitor, single point]. With `Cc1cc2oc3ccc(NCCCN4CCOCC4)cc3c(=O)c2cc1C` the Potency was active: 10.3 µM. In the case of `Cc1ccc(Cl)cc1N1CCN(C(=O)COCc2cc(-c3ccc4c(c3)OCO4)on2)CC1`, the “activity change, negative = growth inhibition” value is reported as inactive: -1.2%. With `COc1ccc(S(=O)(=O)N(C)C[C@H]2Oc3ccc(NC(=O)Nc4ccc(C(F)(F)F)cc4)cc3C(=O)N([C@H](C)CO)C[C@@H]2C)cc1` the Potency was inconclusive [inhibitor, single point]. With `O=C(c1ccc(Cn2cnnn2)cc1)N1CCOc2ccc(C(O)C3CCCCC3)cc2C1` (stereo unspecified) the Potency was inconclusive [inhibitor, single point]. With `CCc1nc2ccc(C(=O)NCc3ccc4c(c3)OCO4)cn2c1N(CC)CCOC` the Potency was inconclusive [inhibitor, single point]. With `O=c1cc(-c2ccccc2)nc2c(-c3ccccc3)c(C(F)(F)F)[nH]n12` the Potency was inconclusive [inhibitor, single point]. With `NC(=O)c1cnn(-c2cc(Oc3ccccc3)ncn2)c1N` the “activity change, negative = growth inhibition” value was inactive: 4.81%. With `O=C(c1cccc([N+](=O)[O-])c1)c1ccccn1` the “activity change, negative = growth inhibition” value was inactive: -0.0834%. With `CC(C)(C)NC(=O)NC(=O)COC(=O)c1cccc(OC(F)F)c1` the “activity change, negative = growth inhibition” value was inactive: -8.69%. In the case of `COC(=O)Nc1sc(C(=O)N(C)C)c(C)c1C(=O)OC`, the “activity change, negative = growth inhibition” value is reported as inactive: 15.8%. With `Cc1ccc(S(=O)(=O)Nc2ccsc2C#N)cc1` the “activity change, negative = growth inhibition” value was inactive: -4.68%. For `CC(=O)c1ccc(S(=O)(=O)N2CCN(C(C)=O)CC2)cc1`, the “activity change, negative = growth inhibition” value was inactive: 3.12%. For `Cc1cc2c(cc1S(=O)(=O)Nc1cccc(Cl)c1C)OCCN2C`, the Potency was inconclusive [inhibitor, single point]. In the case of `C=CCN(CC=C)Cc1c(O)ccc2c(=O)c(-c3ccccc3)coc12`, the Potency is reported as inconclusive [inhibitor, single point]. With `Cc1ccc2nc(SCC(=O)N3CCC(Cc4ccccc4)CC3)nc(=O)n2c1` the Potency was inconclusive [inhibitor, single point]. In the case of `N#C/C(=C(\O)Cc1ccccc1)c1nc2ccccc2[nH]1`, the activity change, negative = growth inhibition is reported as inconclusive: -34.3% [inhibitor]. In the case of `O=C1NC(Cc2ccc(O)cc2)c2nc3ccc(Br)cc3c(=O)n2-c2cc3ccccc3cc21` (stereo unspecified), the Potency is reported as active: 11.6 µM. For `Cc1c(CCC(=O)NCCCN2CCCC2=O)c(=O)oc2cc(O)ccc12`, the “activity change, negative = growth inhibition” value was inactive: 11.7%. In the case of `COc1cc(-c2nc(CN3CCN(c4ncccn4)CC3)c(C)o2)ccc1F`, the “activity change, negative = growth inhibition” value is reported as inactive: 6.4%. For `O=C(Nc1ccccn1)c1ccc(=O)[nH]n1`, the “activity change, negative = growth inhibition” value was inactive: -10.3%. With `O=C(CCc1nc(-c2ccccc2Cl)no1)Nc1cccnc1` the Potency was active: 20.6 µM. In the case of `CC(=O)c1ccc(OCc2cn(CC(=O)c3ccc(O)cc3)nn2)c(C)c1`, the “activity change, negative = growth inhibition” value is reported as inactive: 2.84%. With `O=C(NCC1CC1)c1onc(CSc2ccc(F)c(F)c2)c1C(=O)NCC1CC1` the Potency was inconclusive [inhibitor, single point]. In the case of `Cc1ccc(CNC(=O)C2CCCN(Cc3nc(-c4cccc(C)c4)oc3C)C2)cc1` (stereo unspecified), the Potency is reported as active: 18.4 µM. With `CCCCOc1ccc(S(=O)(=O)N2CCCCC2)cc1` the Potency was inconclusive [inhibitor, single point].
